In PubChem BioAssay AID902 (National Center for Advancing Translational Sciences (NCATS), 2007):
Where “and” joins values, the source holds several entries; their conditions need not be identical. Equal entries are not always repeated. Hit rate of the full screen: of about 130,000 compounds, about 1,900 (1.5%) were called active. This list was built around the results that the source calls inconclusive (neither active nor inactive); the mix of calls is not that of the screen. Calls come from the whole dose curve; as a rule, active = well fitted cell-killing curve with a large enough effect; inconclusive = small, poorly fitted or top-dose-only effect; inactive = no such curve, though single readings can be large or run the other way. Where the call is inconclusive, the potency comes from a doubtful curve fit.
% is set by controls: 0 for no effect and ±100 for the full control effect; potency is the fitted concentration of half-maximal effect; tags give direction and shape of the fitted curve.

Assay: qHTS Screen for Compounds that Selectively Target Cancer Cells with p53 Mutations: Cytotoxicity of p53ts Cells at the Nonpermissive Temperature; note: nearly all actives have a fitted effect of over 55% in size
Conditions: H1299-p53A138V viability at 39C, ATP luminescence, 24 h; activity change, negative = cell killing: at 46.1 µM (top of the series)
In the case of COc1ccccc1-c1nc2c(c(SCC(=O)Nc3ccccc3F)n1)Cc1c(CO)cnc(C)c1O2, the Potency is reported as “inactive”. With COC(=O)CC(=O)CSc1nc2c(cc1C#N)CCCCC2 the Potency was inconclusive: 12.6 µM [cytotoxic, partial curve]. With Cc1cc(/C=C2/SC(=O)N(CC(=O)N3CCOCC3)C2=O)c(C)n1-c1ccccc1F the Potency was inconclusive: 7.08 µM [cytotoxic, partial curve, poor fit]. For Cc1ccc(CNS(=O)(=O)c2ccc(-c3cnc(C4CC4)o3)cc2)cc1, the activity change, negative = cell killing was inconclusive: -31.7% [cytotoxic]. In the case of O=C(CC1=NCCNC(c2ccccc2)C1)c1ccccc1O (configuration not stated), the Potency is reported as inconclusive: 12.6 µM [cytotoxic, single point]. With CCCN(CCC)CC(O)Cn1cc(/C=C/C(=O)c2ccc(OC)cc2)c2ccccc21 (configuration not stated) the Potency was active: 10 µM. In the case of CCOc1ccc(OCc2cccc(C(=O)N3CCOCC3)c2)cc1, the Potency is reported as active: 12.6 µM. For CCCCCn1c(=O)[nH]c2cc(C(=O)NCCN(C)CCCC)ccc2c1=O, the Potency was inconclusive: 0.631 µM [cytotoxic, full curve, poor fit]. In the case of Cc1cc(N(C)Cc2ccccc2)n2nc(-c3ccc(C(C)(C)C)cc3)nc2n1, the Potency is reported as inconclusive: 31.6 µM [cytotoxic, single point]. For CCOc1ccccc1NC(=O)CC(c1ccc(F)cc1)N1Cc2ccccc2C1=O (configuration not stated), the Potency was “inactive”. With O=C(CSc1c2c(nc3ccc(Cl)cc13)CCCC2)NCc1ccccc1Cl the Potency was inconclusive: 7.94 µM [cytotoxic, partial curve]. For CCCCC(CC)Cn1c2nc3ccccc3nc2c2c(=N)oc(C)nc21 (configuration not stated), the Potency was “inactive”. For Cc1ccc(CN2c3ccccc3S(=O)(=O)c3ccccc32)cc1, the Potency was inconclusive: 3.16 µM [cytotoxic, single point]. With COc1ccc2o/c(=N/NC(=S)Nc3ccccc3)c(C(N)=O)cc2c1 the Potency was inconclusive: 10 µM [cytotoxic, partial curve, poor fit]. In the case of Cc1ccc2nc3c(cc(C(N)=S)c(=N)n3CCCOC(C)C)c(=O)n2c1, the Potency is reported as “inactive”. In the case of Cn1nc(C(=O)N2CCN(c3ccccc3F)CC2)c2c1-c1ccccc1SC2, the Potency is reported as “inactive”. With Cc1cc(C)c(NC(=O)CSc2nccn2Cc2ccco2)c(C)c1 the Potency was inconclusive: 15.8 µM [cytotoxic, single point]. With Cc1ccc(C2=Nc3ccccc3N(CC(=O)Nc3cccc(F)c3)C(=O)C2)cc1C the Potency was inconclusive: 12.6 µM [cytotoxic, partial curve]. With CC(=O)Nc1cccc(C(=O)NCc2ccc3c(c2)CCN3C(C)=O)c1 the activity change, negative = cell killing was inconclusive: -31.3% [cytotoxic]. In the case of CC1CN(C(=O)N2CCC(C(=O)NC3CCCCCC3)CC2)c2cc(Cl)ccc2O1 (configuration not stated), the Potency is reported as inconclusive: 2.82 µM [cytotoxic, partial curve]. For CC(C)Sc1nc2c(cnn2-c2ccccc2)c(=O)[nH]1, the Potency was inconclusive: 20 µM [cytotoxic, single point]. With O=C(Nc1cc(Cl)cc(Cl)c1)c1ccc(F)c(S(=O)(=O)N2CCCCCC2)c1 the Potency was inconclusive: 2.51 µM [cytotoxic, full curve, poor fit]. In the case of Cc1ccc(C(C)C)c(OCCn2cc(C(=O)c3ccco3)c3ccccc32)c1, the Potency is reported as “inactive”. In the case of COc1cc2nc(SCC(=O)Nc3ccc(F)cc3)n3nc(CCn4c(C)nc5ccccc54)nc3c2cc1OC, the Potency is reported as inconclusive: 12.6 µM [cytotoxic, single point]. In the case of O=C1[C@H]2[C@H]3[C@H](O)[C@H](O)C/C(=N/OC[C@@H](O)COCc4ccco4)[C@@H]3CC[C@@H]2C(=O)N1c1cccc(Oc2ccccc2)c1, the activity change, negative = cell killing is reported as inactive: -4.06% [at 9.22 µM]. For COCCNC(=O)c1noc2c1CCc1cc(OC)ccc1-2, the Potency was inconclusive: 12.6 µM [cytotoxic, partial curve]. In the case of CCCn1c(Nc2nc3ccccc3n2C)nc2ccccc21, the Potency is reported as active: 10 µM. For CC(C)(C)c1ccc(-c2noc(CCC(N)=O)n2)cc1, the Potency was inconclusive: 10 µM [cytotoxic, partial curve]. In the case of CCc1ccc(Nc2cc(C)nc3nc(Cc4ccc(Cl)cc4)nn23)cc1, the Potency is reported as active: 20 µM. With COc1ccc(-n2ncc3c(NC4CCCC4)ncnc32)cc1 the Potency was active: 2 µM. With Cc1c(Cl)cccc1-n1ncc(C(=O)Nc2ccc(Br)cc2F)c1C1CCNCC1 the Potency was inconclusive: 1 µM [cytotoxic, single point]. In the case of CCOc1ccccc1CNCc1cccn1-c1nnc(N2CCN(c3ccccc3)CC2)s1, the Potency is reported as inconclusive: 20 µM [cytotoxic, single point]. For CC(C)n1cnc2cc(NCc3nc4ccccc4n3C)ccc21, the Potency was inconclusive: 12.6 µM [cytotoxic, partial curve]. In the case of O=C(NCCCc1ccccc1)Nc1cccc(Cl)c1, the Potency is reported as inconclusive: 25.1 µM [cytotoxic, single point]. With CN1CCc2c(sc(NC(=O)CSc3ccccc3)c2-c2nc3ccccc3s2)C1 the Potency was inconclusive: 15.8 µM [cytotoxic, partial curve, poor fit]. With CCNC(=O)CCc1nc(-c2ccc(C(C)(C)C)cc2)no1 the Potency was inconclusive: 6.31 µM [cytotoxic, full curve, poor fit]. With CC(C)(C)CC(=O)NCC(c1ccc2c(c1)OCO2)N1CCN(c2ccccc2)CC1 (configuration not stated) the Potency was inconclusive: 0.0158 µM [cytotoxic, full curve, poor fit]. For CC(=O)c1ccc(NC(=O)c2cc(-c3ccc(C)s3)nc3ccccc23)cc1, the Potency was inconclusive: 12.6 µM [cytotoxic, partial curve]. With COc1ccc(-c2cc(C(=O)OC(C)C(=O)Nc3c(C)n(C)n(-c4ccccc4)c3=O)c3ccccc3n2)cc1 (configuration not stated) the Potency was inconclusive: 5.01 µM [cytotoxic, partial curve]. In the case of COc1ccc(C2C(=O)N(C3CCCCCC3)CC(=O)N2Cc2ccc(C)cc2)cc1 (configuration not stated), the Potency is reported as “inactive”. For Cc1ccc2c(CC(=O)Nc3c(C(=O)c4ccc(C)c(F)c4)oc4ccccc34)coc2c1, the Potency was “inactive”. For O=c1cc(-c2ccccc2)oc2c1ccc1ccccc12, the Potency was active: 31.6 µM. For CCCCCCCCCCCCCC(=O)O[C@H](CC(=O)O)C[N+](C)(C)C, the Potency was inconclusive: 12.6 µM [cytotoxic, partial curve]. With Cc1ccccc1Nc1c(-c2ccc(N3CCOCC3)cc2)nc2ccccn12 the Potency was active: 1 µM. With Clc1ccc(-c2nc(-c3ccccn3)no2)cc1Cl the Potency was active: 7.94 µM. In the case of O=C(NCCN1CCCCC1)c1ccc(I)cc1, the Potency is reported as “inactive”. For CC(C)CCN(Cc1ccco1)C(=O)c1cc2c(s1)-c1ccccc1OC2, the Potency was inconclusive: 5.01 µM [cytotoxic, partial curve]. In the case of CCOC(=O)c1oc2ccc(Br)cc2c1CSc1nnc(C)s1, the Potency is reported as “inactive”. For COc1ccc(CCNC(=O)CCCn2c(=O)c3cccn3c3ccccc32)cc1OC, the Potency was inconclusive: 31.6 µM [cytotoxic, single point]. In the case of O=c1c(-c2ccc(Cl)cc2)nc2cnc(N3CCNCC3)nc2n1Cc1cccs1, the Potency is reported as inconclusive: 20 µM [cytotoxic, single point]. For CCOC(=O)c1c(-c2ccc(C)o2)csc1NC(=O)CSc1nncs1, the Potency was “inactive”. With CC(C)c1ccc(NC(=O)c2ccc3c(c2)CCN3S(=O)(=O)c2ccccc2)cc1 the Potency was “inactive”. For Cc1ccccc1Nc1nn2c(=O)c3ccccc3nc2s1, the Potency was inconclusive: 12.6 µM [cytotoxic, single point]. In the case of CO[C@H]1COC(=O)C/C=C\[C@@H](C)COC(=O)[C@@H](CCSC)NC(=O)C/C=C\[C@@H]1C, the activity change, negative = cell killing is reported as inactive: 6.6% [at 9.22 µM] and inactive: 12.9% [at 9.22 µM]. With O=C(CSCc1cnn(-c2ccccc2)c1-n1cccc1)NCc1ccc(Cl)cc1 the Potency was inconclusive: 0.316 µM [cytotoxic, partial curve, poor fit]. For Cc1nc2ccn(Cc3ccccc3)c(=O)c2cc1C(=O)N1CCN(c2ccccc2F)CC1, the Potency was inconclusive: 10 µM [cytotoxic, partial curve, poor fit]. In the case of Cc1cc(F)ccc1S(=O)(=O)Nc1ccc2oc3c(c2c1)CC(C)CC3 (configuration not stated), the Potency is reported as inconclusive: 20 µM [cytotoxic, single point]. For CCN1CCN(C(=O)c2cc3c(-c4ccc(Cl)cc4)nn(C)c3s2)CC1, the Potency was “inactive”. In the case of Cc1oc(-c2ccc(Cl)cc2)nc1CN1CCC(C(=O)N2CCc3ccccc3C2)CC1, the Potency is reported as inconclusive: 25.1 µM [cytotoxic, single point]. In the case of CCCCCOc1ccc(Cn2c(=O)oc3ccccc32)cc1, the Potency is reported as inconclusive: 20 µM [cytotoxic, single point]. With COc1ccc(-c2cc(C(=O)NCCc3ccccc3)c3c(-c4ccccc4)[nH]nc3n2)cc1OC the Potency was active: 12.6 µM. For CCCN(CCC)C(=O)Cn1c(=O)n(-c2ccc(CC)cc2)c(=O)c2ccc(C(=O)NCCc3ccccc3)cc21, the Potency was inconclusive: 20 µM [cytotoxic, single point]. For O=C(Nc1ccc(F)cc1C(F)(F)F)C1CCN(c2ncccn2)CC1, the Potency was “inactive”. With CCc1ccc(NC(=O)CCn2c(=O)c3cccn3c3ccccc32)cc1 the Potency was inconclusive: 31.6 µM [cytotoxic, single point]. In the case of Cc1ccccc1NC(=O)CSc1nc2ccc(NC(=O)c3cccs3)cc2s1, the Potency is reported as inconclusive: 0.005 µM [cytotoxic, full curve, poor fit]. With CCC1CN(C(=O)N2CCC(C(=O)NCc3cccc(OC)c3OC)CC2)c2cc(C)ccc2O1 (configuration not stated) the Potency was inconclusive: 12.6 µM [cytotoxic, partial curve, poor fit]. With CCC(C)NC(=O)CSc1nc2n[nH]c(C)c2c(=N)n1-c1cc(Cl)ccc1C (configuration not stated) the Potency was active: 12.6 µM.
